Assay results: FireProtDB
Where “and” joins values, the source holds several entries; their conditions need not be identical. Identical values can stand only once.

Conditions: Sus scrofa, reversible: yes, whole UniProt chain shown
[1] = pH 7.5, 25 °C, Urea, CD, Sodium phosphate 0.1 M, sodium hydroxide
[2] = pH 8, Thermal, Absorbance, MOPS 20 mM

B1: Pepsin A wild type, P00791 (protein)
chain: MKWLLLLSLVVLSECLVKVPLVRKKSLRQNLIKNGKLKDFLKTHKHNPASKYFPEAAALIGDEPLENYLDTEYFGTIGIGTPAQDFTVIFDTGSSNLWVPSVYCSSLACSDHNQFNPDDSSTFEATSQELSITYGTGSMTGILGYDTVQVGGISDTNQIFGLSETEPGSFLYYAPFDGILGLAYPSISASGATPVFDNLWDQGLVSQDLFSVYLSSNDDSGSVVLLGGIDSSYYTGSLNWVPVSVEGYWQITLDSITMDGETIACSGGCQAIVDTGTSLLTGPTSAIANIQSDIGASENSDGEMVISCSSIDSLPDIVFTINGVQYPLSPSAYILQDDDSCTSGFEGMDVPTSSGELWILGDVFIRQYYTVFDRANNKVGLAPVA
With B1 the denaturant m value [1] was 1.17 kcal/mol/M, the “denaturant midpoint (higher = more stable)” value [1] was 3.9 M and the unfolding free energy [1] was 4.16 kcal/mol. For the same protein, the Tm [2] was 52.6 °C and 53.6 °C and the “unfolding enthalpy (van 't Hoff)” value [2] was 49 kcal/mol and 46.6 kcal/mol.
